Screen size: about 410,000 compounds; about 490 (0.12%) were called active. Inconclusive results, whose numbers are uncertain, are shown with a selection of clear calls. Calls follow the shape of the dose curve; as a rule, active = well fitted inhibition curve with a large enough effect; inconclusive = small, poorly fitted or top-dose-only effect; inactive = flat fitted curve, though single readings scatter. Potencies of inconclusive entries are doubtful fits and often do not repeat.
target: pyruvate kinase (Trypanosoma brucei) (UniProt Q57TT1); assay: qHTS of Trypanosoma Brucei Inhibitors; details: TbPYK enzyme, Kinase-Glo Plus ATP luminescence, 45 min; series mostly up to 76.8 µM; also: nearly all actives have a fitted effect of over 50% in size
Method in brief: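 Quantitative HTS: titrated library compounds versus trypanosomal pyruvate kinase in TEA buffer (pH 7.2) containing KCl, MgCl2, BSA and Tween-20. Reactions were initiated with ADP, 130 uM final. Kinase-Glo Plus luminescence was read after 45 min at RT.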
Potency is read from the fitted curve at half-maximal effect; tags tell the direction and shape of the fitted curve.

| SMILES | Potency |
| --- | --- |
| C=CCNC(=O)c1c(N)n(Cc2ccco2)c2nc3ccccc3nc12 | inconclusive: 39.8 µM [inhibitor, single point] |
| O=C(Cn1sc2ccccc2c1=O)Nc1ccccc1 | inconclusive: 3.98 µM [inhibitor, full curve, poor fit] |
| CCN(CC)c1ccc(NC(=O)c2cc(Cl)ccc2OC)cc1 | inconclusive: 11.2 µM [inhibitor, partial curve, poor fit] |
| C1CCN2CC3CC(CN4CCCC[C@@H]34)[C@H]2C1 | inactive |
| CC(C)NC(=O)CSc1nnc(-c2ccc(S(=O)(=O)N3CCCC3)cc2)n1CC1CCCO1 (stereo not given) | inconclusive: 8.91 µM [inhibitor, partial curve, poor fit] |
| CCNC(=O)NC(=O)COC(=O)c1ccccc1SCC(=O)NC(=O)NCC | inconclusive: 12.6 µM [inhibitor, partial curve] |
| CCNC(=O)C1CCCN(C(=O)c2ccc(C(=O)OC)cc2)CC1 (stereo not given) | inactive |
| CCOc1nc(NC(C)C)nc(NC(C)C)n1 | inconclusive: 50.1 µM [inhibitor, single point] |
| O=c1c2cn[nH]c2[nH]c(=S)n1-c1ccccc1F | inconclusive: 17.8 µM [inhibitor, partial curve] |
| Cc1cccc(-c2n[nH]c(=S)n2/N=C/c2ccc(C)s2)c1 | inconclusive: 0.708 µM [inhibitor, full curve, poor fit] |
| Cc1onc(-c2ccccc2)c1C(=O)N(Cc1ccco1)Cc1cccs1 | inactive |
| CNC(=O)c1cccn1-c1ccsc1C(=O)OC | inconclusive: 35.5 µM [inhibitor, single point] |
| O=C(Nc1nnc(Cc2ccccc2)s1)c1cnccn1 | inconclusive: 50.1 µM [inhibitor, partial curve, poor fit] |
| COc1ccc(OCc2n[nH]c(=S)n2N)cc1 | inconclusive: 35.5 µM [inhibitor, partial curve, poor fit] |
| Cn1cnnc1SCc1ccc(C(=O)N/N=C(\CCC(=O)O)c2ccc(C(C)(C)C)cc2)cc1 | inconclusive: 35.5 µM [inhibitor, single point] |
| CNC(=O)COc1ccc(S(=O)(=O)N2CCCC2)cc1 | inconclusive: 39.8 µM [inhibitor, single point] |
| Brc1ccc(CSc2ccc(-c3ccco3)nn2)cc1 | inconclusive: 28.2 µM [inhibitor, single point] |
| O=C(Cn1c(=O)n(-c2ccccc2Cl)c(=O)c2sc3ccccc3c21)N1CCCC1 | inactive |
| C=CCn1c(-c2ccc3[nH]c(C)c(C)c3c2)n[nH]c1=S | inconclusive: 10 µM [inhibitor, partial curve] |
| CCN1CCN(S(=O)(=O)c2ccc(Cl)nc2)CC1 | inconclusive: 50.1 µM [inhibitor, single point] |
| CC(=O)Nc1ccc(NS(=O)(=O)c2ccc3ccccc3c2)cc1 | inconclusive: 39.8 µM [inhibitor, partial curve, poor fit] |
| O=C(NNc1ccc([N+](=O)[O-])cc1[N+](=O)[O-])c1ccco1 | inconclusive: 28.2 µM [inhibitor, partial curve] |
| O=C1CC(N2CCOCC2)C(=O)N1c1ccc2c(c1)OCO2 (stereo not given) | inactive |
| O=C(O)c1ccccc1/C=N/NC(=O)c1cc(-c2ccco2)nc2ccccc12 | inactive |

| SMILES | Potency |
| --- | --- |
| CCOC(=O)C1=C(C)N=c2s/c(=C/c3ccccc3)c(=O)n2C1c1ccc(OC)c(OC)c1 (stereo not given) | inactive |
| Cc1cc(C)c(NC(=O)c2c[nH]c(=S)n2-c2ccc(F)cc2)c(C)c1 | active: 7.94 µM |
| COC(=O)c1ccc(-n2c(/C=C\c3cccc(Br)c3)nc3ccccc3c2=O)cc1 | inactive |
| Cc1c(NC(=O)CN2C(=O)NC(C)(c3ccccc3Cl)C2=O)c(=O)n(-c2ccccc2)n1C (stereo not given) | inactive |
| N#C/C(C(=S)Nc1ccccc1)=C1/NN=C(N2CCOCC2)N1c1ccccc1 | inconclusive: 20 µM [inhibitor, partial curve] |
| Cc1cc(Cl)c(S(=O)(=O)NCc2cccnc2)cc1OCC(N)=O | inconclusive: 8.91 µM [inhibitor, full curve] |
| CCn1c2c(c(=O)n3ncc(C(=O)Nc4cccc(Cl)c4C)c13)CN(Cc1ccc(OC)cc1)CC2 | inconclusive: 39.8 µM [inhibitor, partial curve, poor fit] |
| CCN(CC)C(=O)CSc1nnc2sc3ccccc3n12 | inconclusive: 35.5 µM [inhibitor, single point] |
| O=S1(=O)CC(c2ccccc2)=NN=C(c2ccccc2)C1 | inconclusive: 39.8 µM [inhibitor, partial curve, poor fit] |
| Cc1ccc(NC(=O)C2COc3ccccc3O2)c(C)c1 (stereo not given) | inactive |
| O=C(NCc1ccco1)C1CC(c2ccc(Cl)cc2)=NO1 (stereo not given) | inactive |
| Cc1[nH]c2ccccc2c1Cc1n[nH]c(=S)n1C | inconclusive: 11.2 µM [inhibitor, partial curve, poor fit] |
| CC1(C)Cc2c(C#N)c(N3CCN(C(=O)c4ccco4)CC3)nc(-c3ccco3)c2CS1 | inconclusive: 25.1 µM [inhibitor, single point] |
| CC(=O)N1CCN(c2ccc(NC(=O)c3ccc4c(c3)OCO4)cc2)CC1 | inconclusive: 5.62 µM [inhibitor, full curve] |
| COc1ccc2oc(C(=O)OCC(=O)NC3CCS(=O)(=O)C3)c(C)c2c1 (stereo not given) | inactive |
| CN(C)c1ccc(C(=O)NCC2CCCO2)cc1 (stereo not given) | inconclusive: 35.5 µM [inhibitor, single point] |
| O=C(Cc1ccc(Cl)cc1)N1CCN(c2ccc(F)cc2)CC1 | inconclusive: 35.5 µM [inhibitor, partial curve, poor fit] |
| Cc1ccc(-n2c(SCC(=O)N3CC(=O)Nc4ccccc43)nc3ccccc3c2=O)cc1C | inactive |
| COc1ccccc1N1CCN(Cc2cc(=O)oc3cc(C)cc(C)c23)CC1 | inactive |
| COc1cccc(C(=O)NNC2OC(CO)C(O)C2O)c1 (stereo not given) | inactive |
| C=C(C)CN1C(=O)C(O)(CC(=O)c2ccc3c(c2)OCCO3)c2ccccc21 (stereo not given) | inconclusive: 50.1 µM [inhibitor, single point] |
| CCOc1cc(-c2ccc(N)c(OCC)c2)ccc1N | inconclusive: 31.6 µM [inhibitor, single point] |
| CCOc1ccccc1C(=O)NCC(=O)OCC(=O)c1c(N)n(C)c(=O)n(C)c1=O | inactive |
| CC1(C)CC(=O)c2sc(NC(=O)c3ccc4ncsc4c3)nc2C1 | inconclusive: 28.2 µM [inhibitor, single point] |

| SMILES | Potency |
| --- | --- |
| S=c1[nH]ccn1-c1ccc(Cl)cc1 | inconclusive: 17.8 µM [inhibitor, partial curve] |
| N#Cc1c(-c2ccccc2)cc(-c2ccccc2)nc1SCC(=O)NCC(=O)O | inconclusive: 20 µM [inhibitor, partial curve, poor fit] |
| Cc1cccn2c(=O)c3cc(C#N)c(=NC(=O)c4ccccc4)n(Cc4ccco4)c3nc12 | inconclusive: 25.1 µM [inhibitor, partial curve] |
| Cc1ccc(NC(=O)CN2CCOCC2)cc1C | inactive |
| CCc1n[nH]c(=S)n1/N=C/c1ccccc1OCc1ccc(Cl)cc1 | inconclusive: 10 µM [inhibitor, partial curve] |
| Cc1ccc(C(=O)COc2ccccc2-c2ccccc2)cc1C | inactive |
| O=C(NC(Cc1ccc(O)cc1)C(=O)O)/C(=C/c1ccccc1)NC(=O)c1ccccc1 (stereo not given) | inconclusive: 50.1 µM [inhibitor, single point] |
| Cc1ccc2c(c1)N(CCC(=O)N1CCC3(CC1)OCCO3)C(=O)CO2 | inconclusive: 6.31 µM [inhibitor, full curve] |
| CCOC(=O)C1=C(C)Nc2nc(=S)[nH]n2C1c1ccc(Cl)cc1 (stereo not given) | inconclusive: 20 µM [inhibitor, partial curve, poor fit] |
| Oc1ccccc1/C=N/n1c(COc2ccccc2)n[nH]c1=S | inconclusive: 11.2 µM [inhibitor, full curve, poor fit] |
| CCOC(=O)NC(=O)CSc1nc(-c2ccc(C)c(C)c2)cn1-c1ccccc1 | inconclusive: 15.8 µM [inhibitor, partial curve] |
| COc1ccc(S(=O)(=O)NCC(=O)N(CC(=O)NCc2ccco2)Cc2ccccc2)cc1 | inactive |
| O=S(c1ccccc1O)S(=O)c1ccccc1O (stereo not given) | active: 4.47 µM |
| Nc1c(-c2ccc(Cl)cc2)cnn1-c1cccc(C(F)(F)F)c1 | inactive |
| CC(C)c1cnc2c(c1SCc1cccc(C(F)(F)F)c1)c(=O)n(C)c(=O)n2C | inconclusive: 35.5 µM [inhibitor, single point] |
| CCOC(=O)C1CCN(C(=O)c2ccc3nc(-c4ccc(OC)cc4)c(-c4ccc(OC)cc4)nc3c2)CC1 | inactive |
| On1ccccc1=S | inconclusive: 25.1 µM [inhibitor, partial curve, poor fit] |
| CN(C)S(=O)(=O)c1ccc(=S)[nH]c1 | inconclusive: 3.55 µM [inhibitor, full curve, poor fit] |
| Cn1c(C(=O)N2CCCC(C(=O)NCCCc3ccccc3)C2)cc2sccc21 (stereo not given) | inconclusive: 39.8 µM [inhibitor, partial curve, poor fit] |
| Cc1ccccc1OCC(=O)N/N=C/c1ccc(N2CCOCC2)o1 | inconclusive: 28.2 µM [inhibitor, partial curve, poor fit] |
| CC(c1ccco1)N(C(=O)Nc1ccc(Cl)cc1)c1ccccn1 (stereo not given) | inactive |
| CC(=O)Nc1ccc(S(=O)(=O)NC(CC(=O)N(C)Cc2ccccc2)C(C)C)cc1 (stereo not given) | inconclusive: 31.6 µM [inhibitor, partial curve] |
